Among all 48,000 compounds or so, about 550 (1.1%) were called active. Not shown: some 4% with an inconclusive outcome. No stated cut-off is given here; in the data, active means potency below about 15 µM; inconclusive means mostly about 16 µM to 33 µM; inactive means weaker than that. This is one part of the list.
target: Lysosomal acid glucosylceramidase (Homo sapiens) (UniProt P04062); assay: Glucocerebrosidase; conditions: purified enzyme, resorufin glucoside fluorescence (screen aimed at inhibitors), 20 min;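 further: the screen sought inhibitors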
How it was run: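 Normal human glucocerebrosidase (0.2 nM final) was assayed with resorufin β-D-glucopyranoside (30 uM final) in 50mM citric acid/KH2PO4, 10mM sodium taurocholate, 0.01% tween-20, pH 5.9. Compounds were titrated; fluorescence (Ex 548, Em 600) read after 20 min at RT.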
Potency means the concentration at half of the fitted maximal effect.

UniProt P04062, sequence (P04062 whole entry, looked up): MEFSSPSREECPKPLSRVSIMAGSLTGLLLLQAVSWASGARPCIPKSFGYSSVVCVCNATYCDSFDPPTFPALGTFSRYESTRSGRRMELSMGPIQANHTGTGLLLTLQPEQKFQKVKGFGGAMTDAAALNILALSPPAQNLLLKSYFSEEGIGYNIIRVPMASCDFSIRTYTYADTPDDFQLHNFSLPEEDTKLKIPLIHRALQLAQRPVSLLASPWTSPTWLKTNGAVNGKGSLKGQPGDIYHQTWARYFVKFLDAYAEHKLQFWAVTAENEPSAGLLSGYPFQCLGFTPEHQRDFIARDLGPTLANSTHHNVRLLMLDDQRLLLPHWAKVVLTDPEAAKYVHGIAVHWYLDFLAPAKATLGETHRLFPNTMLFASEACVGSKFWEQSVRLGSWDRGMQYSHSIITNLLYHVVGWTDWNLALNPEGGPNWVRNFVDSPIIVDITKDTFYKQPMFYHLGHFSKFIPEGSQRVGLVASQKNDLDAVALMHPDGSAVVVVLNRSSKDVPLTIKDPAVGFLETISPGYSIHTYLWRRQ

Potency, inactive:
CCOC(=O)CNC(=O)CSc1nnc(-c2ccco2)n1Cc1ccco1 > 76.9 µM
COc1ccc2c(c1)c1ccccc1n2C > 76.9 µM
CCOc1cc(NC(=O)C2CCCO2)c(OCC)cc1NC(C)=O (stereo not given) > 76.9 µM
Cc1oc(-c2ccccc2Cl)cc1-c1nn2c(-c3ccco3)nnc2s1 > 76.9 µM
c1ccc(-c2nnc(CSc3nnc(-c4ccncc4)n3Cc3ccco3)o2)cc1 > 76.9 µM
CC(=O)NCC(=O)NC(C(=O)Nc1ccc2c(c1)OCCO2)c1ccc(C)cc1 (stereo not given) > 76.9 µM
O=C(Nc1cnn(Cc2ccccc2)c1)c1nc2ncccn2n1
COc1ccc(NC(=O)C2CC(=O)N(c3cc(C)ccc3C)C2)cc1 (stereo not given) > 76.9 µM
Cc1ccc2cccc(S(=O)(=O)Nc3c(C)n(C)n(-c4ccccc4)c3=O)c2n1 > 76.9 µM
Cc1ccc(S(=O)(=O)N2CCN(C(=O)N(C)C)CC2)cc1C > 76.9 µM
c1ccc(CC2CCN(Cc3nc(-c4ccccc4)no3)CC2)cc1 > 76.9 µM
Cc1nn(-c2ccccc2)c(Oc2ccc(F)cc2)c1/C=N/n1cnnc1 > 76.9 µM
CCOC(=O)CSC1=Nc2ccccc2C2=NC(CC(=O)NCc3ccc4c(c3)OCO4)C(=O)N12 (stereo not given) > 76.9 µM
CCn1c(SCC(=O)OCC(=O)N2c3ccccc3NC(=O)C2(C)C)nnc1-c1ccco1 > 76.9 µM
CCN1CCN(c2ncc3c(n2)CC(c2cc(OC)c(OC)c(OC)c2)CC3=O)CC1 (stereo not given) > 76.9 µM
Cc1ccc(NC2c3ncccc3C(=O)N2C2CCCCC2)cc1C (stereo not given) > 76.9 µM
CCOCCn1c(N2CCN(c3ccc(OC)cc3)CC2)nc2c1c(=O)[nH]c(=O)n2C > 76.9 µM
O=C(Cc1ccccc1)N1CCC(c2nc(-c3ccc(F)cc3)no2)CC1 > 76.9 µM
Cc1cccc(N2CCN(S(=O)(=O)c3ccc4c(c3)n(C)c(=O)c(=O)n4C)CC2C)c1 (stereo not given) > 76.9 µM
CN1CCc2c(sc3c2C(=O)NC(c2ccccn2)N3)C1 (stereo not given) > 76.9 µM
COCCn1nnnc1CN(CCc1ccc(OC)c(OC)c1)Cc1cc2ccc(C)cc2[nH]c1=O > 76.9 µM
COc1ccc(S(=O)(=O)NCc2ccc(C(=O)O)cc2)cc1 > 76.9 µM
O=C1NCCCC2c3c(cc(Br)c(O)c3Br)OC12N1CCOCC1 (stereo not given) > 76.9 µM
COc1cc2cc(C(c3nnnn3C3CCCC3)N3CCCCC3)c(=O)[nH]c2cc1OC (stereo not given) > 76.9 µM
Clc1c(CSc2nc3ccccc3o2)nc2sccn12 > 76.9 µM
CS(=O)(=O)N1CCC(C(=O)NCc2ccc(F)cc2Cl)CC1 > 76.9 µM
O=C(CN1C(=O)c2ccccc2C1=O)Nc1ccc(-c2nc3ccccc3o2)cc1 > 76.9 µM
CCc1nnc(NC(=O)CSc2nnc(COc3cccc(C)c3)o2)s1 > 76.9 µM
CCc1ccc(NC(=O)C(C)Nc2ccc(S(=O)(=O)NC(C)=O)cc2)cc1 (stereo not given) > 76.9 µM
COc1cc(-c2c(C#N)c(N)nc3c2c(C)nn3-c2ccc(C)c(C)c2)cc(OC)c1OC > 76.9 µM
CCOC(=O)CSc1nncc2ccc(OC)c(OC)c12 > 76.9 µM
CS(=O)(=O)N(CC(=O)NCc1ccco1)c1ccc2c(c1)OCO2 > 76.9 µM
Cc1cc(C)nc(NC2=NCC(=O)N2c2ccc3c(c2)OCCO3)n1 > 76.9 µM
Cn1c(Cc2cccs2)nnc1SC/C=C/c1ccccc1 > 76.9 µM
CCC(C(=O)NCc1ccco1)N(C(=O)CNS(=O)(=O)c1ccc(C)cc1)c1ccccc1OC (stereo not given) > 76.9 µM
Cc1ccc(S(=O)(=O)NCc2csc(C)n2)c(C)c1 > 76.9 µM
OCCOc1ccc(C2=NCCO2)cc1 > 76.9 µM
CCN(CC)C(=O)C1CC(=O)OC1(C)C (stereo not given) > 76.9 µM
CC1(c2ccccc2)NC(=O)N(CC(=O)NC(=O)NC2CCCC2)C1=O (stereo not given) > 76.9 µM
CC(=O)Nc1c(C(=O)N2CCN(c3ncccn3)CC2)cnn1-c1ccccc1Cl > 76.9 µM
CCOC(=O)c1sc2nc(CC(=O)OC)nc(NCc3ccco3)c2c1C > 76.9 µM
O=C(COc1ccccc1)Nc1nn[nH]n1 > 76.9 µM
CCOC(=O)Cn1c(=O)c2c(nc3n2CCN3Cc2ccccc2)n(C)c1=O > 76.9 µM
Fc1cccc(-n2c(-c3ccco3)nc3nc4ccccc4nc32)c1 > 76.9 µM
Cc1onc(-c2ccccc2)c1C(=O)n1cccn1 > 76.9 µM
CCCCN(CC)CCCNC(=O)CC1Nc2ccccc2NC1=O (stereo not given) > 76.9 µM
O=C1CN(S(=O)(=O)c2ccc(F)cc2)CC(=O)N1CCc1ccccc1 > 76.9 µM
Cc1ccnc(SCCn2c(N3CCN(C)CC3)nc3c2c(=O)[nH]c(=O)n3C)n1 > 76.9 µM
CCn1c(O)c(C=Nc2ccccc2)oc1=S > 76.9 µM
CCCCCCn1c(N2CCC(C(N)=O)CC2)nc2c1c(=O)n(C)c(=O)n2C > 76.9 µM
CC(=O)c1c(C(C)=O)c(C)n(-c2nc(-c3cccs3)c(C)s2)c1C > 76.9 µM
Cc1ccc2[nH]c(=O)c(CN(CCN3CCOCC3)C(=O)Nc3ccc(F)cc3)cc2c1 > 76.9 µM
Brc1ccc(C2=Nn3c(nnc3-c3cccnc3)SC2)s1 > 76.9 µM
C/C(NC1CCCC1)=C(/C#N)C(N)=O > 76.9 µM
O=S1(=O)CCC(NS(=O)(=O)c2cccc3cccnc23)C1 (stereo not given) > 76.9 µM
COc1ccccc1OCc1nc2ccccc2[nH]1 > 76.9 µM
CC(C)C(c1nnnn1Cc1ccco1)N1CCN(C2CCCC2)CC1 (stereo not given) > 76.9 µM
CCOc1cc(N2CCOCC2)c(OCC)cc1NC(=O)COC(=O)c1cc(C)oc1C > 76.9 µM
Cc1ccc(S(=O)(=O)NC(C(=O)OCC(=O)NC2CCS(=O)(=O)C2)C(C)C)cc1 (stereo not given) > 76.9 µM
O=C(Oc1c(CN2CCOCC2)cc(Cl)c2cccnc12)c1ccc(F)cc1 > 76.9 µM
COc1ccc(NS(=O)(=O)c2ccc(NC(=O)C3CCCO3)cc2)cc1 (stereo not given) > 76.9 µM
Cn1c(Cc2cccs2)nnc1SCc1nc2ccccc2[nH]1 > 76.9 µM
CCOC(=O)c1c(C)[nH]c(C)c1C(=O)CN1C(=O)NC(CC(C)C)C1=O (stereo not given) > 76.9 µM
COC(=O)c1ccccc1NC(=O)CN1CCN(C23CC4CC(CC(C4)C2)C3)CC1 > 76.9 µM
O=C(NS(=O)(=O)c1ccccc1)c1ccccc1F > 76.9 µM
CCCCOc1ccccc1C1CC(=O)NC2=C1C(=O)CCC2 (stereo not given) > 76.9 µM
COc1ccc(N2CCN(S(=O)(=O)c3cccs3)CC2)cc1 > 76.9 µM
COCCSc1nnc(NC(=O)Cc2ccccc2OC)s1 > 76.9 µM
CCC(=O)c1ccc(OCC(=O)Nc2nn3cnnc3s2)cc1
O=C(OCCN(CCOC(=O)c1ccncc1)S(=O)(=O)c1cccs1)c1ccncc1 > 76.9 µM
CCOc1ccc(NC(=O)c2cccnc2C(=O)O)cc1 > 76.9 µM
O=C1OCC2=C1C(c1ccc3c(c1)OCO3)Sc1ccccc1N2 (stereo not given)
COCCn1c(=NC(=O)CSCC(=O)NC2CCCCC2)sc2cc(OC)ccc21 > 76.9 µM
O=C(C1CCN(S(=O)(=O)Cc2ccccc2)CC1)N1CCCc2ccccc21 > 76.9 µM
CCOc1cc(C(=O)NCCOC)ccc1OC > 76.9 µM
COc1ccc(Cc2nnc(NS(=O)(=O)Cc3ccccc3)s2)cc1 > 76.9 µM
Cc1ccc2nc(NC3=NCN(Cc4ccccc4)CN3)nc(C)c2c1 > 76.9 µM
Cc1sc2nc(SCC(=O)NCc3cccs3)[nH]c(=O)c2c1C > 76.9 µM
CCOC(=O)c1sc(NC(=O)CSc2nnc(-c3ccc(OC)cc3)n2CCOC)nc1C > 76.9 µM
COC(=O)c1c(N)c(C#N)c2n1CCCCC2 > 76.9 µM
O=C(NCC1CCCO1)c1c(O)c2c([nH]c1=O)CCCC2 (stereo not given) > 76.9 µM
Fc1cc2ncn(Cc3ccccc3)c2cc1F > 76.9 µM
O=C(CSc1nnnn1-c1ccccc1)Nc1nsc(-c2ccccc2)n1 > 76.9 µM
CCCc1cc2c(=O)c(-c3ccccn3)coc2cc1OC > 76.9 µM
COc1ccc(OC)c(C2=NOC(C(=O)Nc3cccnc3)C2)c1 (stereo not given) > 76.9 µM
CCNC(=O)CN(c1ccc(C)cc1)S(=O)(=O)c1ccc(SC)cc1 > 76.9 µM
COc1ccc(-c2noc(CCC(=O)NCc3cccnc3)n2)cc1OC > 76.9 µM
O=C(CSc1nc2c(c(=O)[nH]1)CCCC2)Nc1ccc(Cl)cc1F > 76.9 µM
COCCCNC(=O)c1cc2c(s1)CS(=O)(=O)C2 > 76.9 µM
O=S(=O)(NCC1CCCO1)c1cccc(C(F)(F)F)c1 (stereo not given) > 76.9 µM
